# The other results are listed elsewhere or left out.
# Legend:
# HSkMC = human skeletal muscle cells; experiment: cytotoxicity call (relative viability < 0.9); details: 10 µM
# HepG2 = experiment: cytotoxicity call (relative viability < 0.9); details: 10 µM
# S. aureus RN4220 = experiment: growth inhibition call (relative growth <= 0.2); details: 50 µM
SMILES,cytotoxicity call (HSkMC),cytotoxicity call (HepG2),growth inhibition call (S. aureus RN4220)
Cc1[nH]c(N)nc(=O)c1CC(=O)O,inactive,inactive,inactive
COc1ccc(CN(C)C[C@H]2OCCCC[C@@H](C)Oc3ccc(NC(=O)Nc4ccc(OC)cc4)cc3C(=O)N([C@@H](C)CO)C[C@@H]2C)cc1,inactive,inactive,inactive
Cc1noc(C)c1S(=O)(=O)Nc1ccc2c(c1)CC(=O)N([C@H](C)CO)C[C@H](C)[C@@H](CN(C)S(=O)(=O)c1ccccc1)O2,inactive,inactive,inactive
CN(C)CCNc1cn[nH]c(=O)c1Cl,inactive,inactive,inactive
NCCNCCNCCN,inactive,inactive,inactive
C[C@H]1CC/C=C\[C@H]2O[C@@]34C=CCN(c5ccc(Cl)cc5)C(=O)[C@H]3N([C@@H](C)CO)C(=O)[C@]4(C)[C@@H]2C(=O)O1,inactive,inactive,inactive
O=C(C[C@H]1CC[C@H]2[C@@H](COC[C@H](O)CN2S(=O)(=O)c2cccc(Cl)c2)O1)N1CCOCC1,inactive,inactive,inactive
Cc1noc(C)c1NC(=O)N(C)C[C@H]1Oc2ccc(NS(=O)(=O)c3cn(C)cn3)cc2CC(=O)N([C@@H](C)CO)C[C@H]1C,inactive,inactive,inactive
Cc1cc(C(=O)Nc2cccc3c2O[C@H](CN(C)S(C)(=O)=O)[C@H](C)CN([C@H](C)CO)C3=O)n(C)n1,inactive,inactive,inactive
O=S(=O)([O-])CCSSCCS(=O)(=O)[O-].[Na+].[Na+],inactive,inactive,inactive
CC(C)NC(=O)N(C)C[C@@H]1Oc2ccc(NC(=O)Cc3ccccc3)cc2CC(=O)N([C@H](C)CO)C[C@@H]1C,inactive,inactive,inactive
C[C@@H]1CN([C@H](C)CO)C(=O)c2cc(NC(=O)Nc3cccc4ccccc34)ccc2O[C@H]1CN(C)S(=O)(=O)c1ccccc1,inactive,inactive,inactive
C[C@@H]1CN([C@H](C)CO)C(=O)Cc2cc(NC(=O)CCN3CCOCC3)ccc2O[C@H]1CN(C)S(=O)(=O)c1ccc(Cl)cc1,inactive,inactive,inactive
C[C@@H]1CN([C@H](C)CO)C(=O)c2cc(NC(=O)C3CCCCC3)ccc2O[C@H]1CN(C)Cc1ccc(C(F)(F)F)cc1,inactive,inactive,inactive
C[C@H]1CN([C@@H](C)CO)C(=O)Cc2cc(NC(=O)Nc3ccc4c(c3)OCO4)ccc2O[C@H]1CN(C)Cc1ccc(C(=O)Nc2ccccc2N)cc1,inactive,active,inactive
COc1ccc(S(=O)(=O)N[C@H]2CC[C@@H](CC(=O)N3CCC(Cc4ccccc4)CC3)O[C@H]2CO)cc1,inactive,inactive,inactive
COc1ccccc1C#Cc1ccc2c(c1)O[C@@H](CN(C)Cc1cccnc1)[C@H](C)CN([C@@H](C)CO)S2(=O)=O,active,inactive,inactive
C[C@@H]1CCCCO[C@@H](CN(C)Cc2ccc(C(=O)O)cc2)[C@H](C)CN([C@@H](C)CO)C(=O)c2cc(NC(=O)C3CCCCC3)ccc2O1,inactive,inactive,inactive
C[C@@H]1CN([C@H](C)CO)C(=O)c2cc(NC(=O)Nc3ccc4c(c3)OCO4)ccc2O[C@@H](C)CCCCO[C@H]1CN(C)S(=O)(=O)c1ccccc1,inactive,inactive,inactive
C[C@@H]1CCCCO[C@@H](CN(C)C(=O)Nc2ccc(F)cc2)[C@H](C)CN([C@@H](C)CO)C(=O)c2cc(NC(=O)C3CCCCC3)ccc2O1,inactive,inactive,inactive
Cc1noc(C)c1S(=O)(=O)Nc1ccc2c(c1)C(=O)N([C@@H](C)CO)C[C@H](C)[C@H](CN(C)Cc1ccc(Oc3ccccc3)cc1)O2,inactive,inactive,inactive
N#Cc1ccc(-c2ccccc2)nc1,inactive,inactive,inactive
C[C@H]1CN([C@@H](C)CO)S(=O)(=O)c2ccc(C#CCN(C)C)cc2O[C@@H]1CN(C)S(C)(=O)=O,inactive,inactive,inactive
Cc1ccc(S(=O)(=O)N(C)C[C@H]2Oc3ncc(C#CCC(C)C)cc3C(=O)N([C@@H](C)CO)C[C@@H]2C)cc1,inactive,inactive,inactive
C[C@@H]1[C@@H]([Si](C)(C)F)[C@H](CCn2cc([C@H](O)c3ccccc3)nn2)O[C@@]12C(=O)N(c1ccccc1)c1ccccc12,inactive,active,inactive
C[C@H](CO)N1C[C@H](C)[C@H](CN(C)Cc2ccc(-c3ccccc3)cc2)Oc2ccc(NS(=O)(=O)c3cccs3)cc2C1=O,inactive,inactive,inactive
Cc1noc(C)c1S(=O)(=O)Nc1ccc2c(c1)C(=O)N([C@H](C)CO)C[C@H](C)[C@H](CN(C)C(=O)Nc1cccc3ccccc13)OCCCC[C@H](C)O2,inactive,inactive,inactive

SMILES,cytotoxicity call (HSkMC),cytotoxicity call (HepG2),growth inhibition call (S. aureus RN4220)
C[C@H]1CN([C@@H](C)CO)C(=O)c2cccc(NC(=O)c3nc4ccccc4s3)c2O[C@H]1CN(C)C(=O)Nc1cccc2ccccc12,inactive,inactive,inactive
C[C@H](O)C#Cc1ccc2c(c1)O[C@H](CN(C)C(=O)C1CCCCC1)[C@@H](C)CN([C@@H](C)CO)S2(=O)=O,inactive,inactive,inactive
Cc1ccc(S(=O)(=O)N(C)C[C@H]2Oc3ccc(NC(=O)Nc4cccc5ccccc45)cc3CC(=O)N([C@@H](C)CO)C[C@H]2C)cc1,inactive,inactive,inactive
C[C@H]1CN([C@@H](C)CO)S(=O)(=O)c2ccc(C#CC3(O)CCCC3)cc2O[C@H]1CN(C)C(=O)Cc1cccnc1,inactive,inactive,inactive
C[C@H](CO)N1C[C@H](C)[C@H](CN(C)CC2CCCCC2)Oc2ccc(NC(=O)Nc3ccc(F)cc3)cc2CC1=O,inactive,active,inactive
Cn1cnc(S(=O)(=O)N[C@@H]2C=C[C@@H](CC(=O)NCC3CC3)O[C@@H]2CO)c1,inactive,inactive,inactive
CC(C)NC(=O)N(C)C[C@H]1Oc2c(NS(=O)(=O)c3cccs3)cccc2C(=O)N([C@H](C)CO)C[C@H]1C,inactive,inactive,inactive
COc1ccc(S(=O)(=O)N(C)C[C@@H]2OCCCC[C@H](C)Oc3ccc(NC(=O)CCC(F)(F)F)cc3C(=O)N([C@H](C)CO)C[C@H]2C)cc1,inactive,inactive,inactive
CO[C@H](C(=O)N(C)C[C@H]1OCc2ccccc2-c2c(n(C)c3ccccc23)C(=O)N([C@H](C)CO)C[C@@H]1C)c1ccccc1,inactive,inactive,inactive
COCC(=O)N1C[C@@H]2OCCN(c3ncccn3)[C@H]2C1,inactive,inactive,inactive
Cc1noc(C)c1S(=O)(=O)Nc1ccc2c(c1)C(=O)N([C@H](C)CO)C[C@H](C)[C@H](CN(C)Cc1ccc(C(F)(F)F)cc1)OCCCC[C@@H](C)O2,inactive,inactive,inactive
COCC(=O)N1C[C@H](C)[C@@H](OC)CN(C)C(=O)c2cc(NC(=O)c3cc(C)on3)ccc2OC[C@@H]1C,inactive,inactive,inactive
C[C@@H]1CCCCO[C@H](CN(C)C(=O)Nc2ccc(C(F)(F)F)cc2)[C@H](C)CN([C@H](C)CO)C(=O)c2cc(NC(=O)Cc3ccccc3)ccc2O1,inactive,inactive,inactive
CCS(=O)(=O)N1C[C@]2(C1)CN([C@H](CO)c1[nH]c3cc(ccc3c12)OC)S(=O)(=O)c1cn(cn1)C,inactive,inactive,inactive
C[C@H](CO)N1C[C@H](C)[C@H](CN(C)C(=O)NC2CCCCC2)Oc2c(NC(=O)c3ccc(-c4nccs4)cc3)cccc2C1=O,inactive,inactive,inactive
Cc1noc(C)c1NC(=O)Nc1ccc2c(c1)C(=O)N([C@H](C)CO)C[C@H](C)[C@H](CN(C)C(=O)Cc1ccccc1)OCCCC[C@H](C)O2,inactive,inactive,inactive
C[C@@H]1CCCCO[C@H](CN(C)S(=O)(=O)c2ccc(Cl)cc2)[C@H](C)CN([C@@H](C)CO)C(=O)c2cc(NS(=O)(=O)c3ccc(Cl)cc3)ccc2O1,inactive,active,inactive
C[C@H]1CN([C@@H](C)CO)C(=O)Cc2cc(NC(=O)Cc3ccccc3)ccc2O[C@H]1CN(C)C(=O)Nc1ccc(C(F)(F)F)cc1,inactive,inactive,inactive
O=C(C[C@H]1CC[C@H]2[C@@H](COC[C@@H](O)CN2C(=O)Nc2ccc(Cl)cc2)O1)NCCc1ccncc1,inactive,active,inactive
C[C@H]1CCCCO[C@@H](CN(C)S(=O)(=O)c2ccccc2)[C@@H](C)CN([C@@H](C)CO)C(=O)c2cc(NC(=O)Nc3ccccc3)ccc2O1,inactive,inactive,inactive
C[C@H](CO)N1C[C@H](C)[C@H](CN(C)S(C)(=O)=O)Oc2c(NC(=O)CCCCCC(=O)Nc3ccccc3N)cccc2C1=O,inactive,inactive,inactive
O=C(NS(=O)(=O)c1ccccc1)C1CC1,inactive,inactive,inactive
Cc1ccc(S(=O)(=O)N(C)C[C@H]2Oc3ccc(NS(=O)(=O)c4cn(C)cn4)cc3C(=O)N([C@@H](C)CO)C[C@H]2C)cc1,inactive,inactive,inactive
C[C@@H]1CN([C@H](C)CO)C(=O)Cc2cc(NS(=O)(=O)c3cn(C)cn3)ccc2O[C@H]1CN(C)S(C)(=O)=O,inactive,inactive,inactive
COc1ccc(NC(=O)Nc2ccc3c(c2)C(=O)N([C@H](C)CO)C[C@H](C)[C@@H](CN(C)C(=O)Nc2ccc(F)cc2)OCCCC[C@H](C)O3)cc1,inactive,inactive,inactive
OC[C@@H]1CN(CCN2CCOCC2)C[C@H](n2cnc3c(NC4CC4)ncnc32)O1,inactive,inactive,inactive
C/C=C/c1cccc(-c2nc(C(=O)NCc3cccc(OC)c3)cc3c2[C@H](CCO)N([S@@](=O)C(C)(C)C)C3)c1,inactive,inactive,inactive

# From the antibiotic and cytotoxicity screens of Wong et al. (2023)
